Article PMC10150492, “Attenuation of reverse transcriptase facilitates SAMHD1 restriction of HIV-1 in cycling cells” (Retrovirology, 2023)

B1: SAMHD1 T592V (enzyme)
chain: not shown
notes: source: E. coli Rosetta 2 (DE3), purified (StrepTactin-XT, PreScission cleavage, GSTrap, Superdex 200); not shown: StrepII, N-terminal, cleaved
B2: SAMHD1 T592C (enzyme)
chain: not shown
notes: as for B1
B3: SAMHD1 T592S (enzyme)
chain: not shown
notes: as for B1
B4: SAMHD1 T592L (enzyme)
chain: not shown
notes: as for B1
B5: SAMHD1 T592I (enzyme)
chain: not shown
notes: as for B1
B6: SAMHD1 T592K (enzyme)
chain: not shown
notes: as for B1
B7: SAMHD1 T592D (enzyme)
chain: not shown
notes: as for B1
B8: SAMHD1 T592E (enzyme)
chain: not shown
notes: as for B1

Target: the molecule itself
Assay: SEC-MALS

Row | Protein | ftet (fraction tetramer remaining after 3 h incubation with GTP and dATP) | kdec (tetramer decay rate, with GTP and dATP)
1 | B1 | 0.61 fraction | 2.53e-05 s⁻¹
2 | B2 | 0.63 fraction | 2.94e-05 s⁻¹
3 | B3 | 0.68 fraction | 2.33e-05 s⁻¹
4 | B4 | 0.2 fraction | 0.000152 s⁻¹
5 | B5 | 0.63 fraction | 3.07e-05 s⁻¹
6 | B6 | 0.12 fraction | 0.000221 s⁻¹
7 | B7 | 0.19 fraction | 0.000112 s⁻¹
8 | B8 | 0.36 fraction | 7e-05 s⁻¹

Target: the molecule itself
Assay: SEC-MALS
Remark: another data set of the same source

Row | Protein | stoichiometry N
9 | B1 | 4
10 | B2 | 4
11 | B3 | 4
12 | B4 | 4
13 | B5 | 4
14 | B6 | 4
15 | B7 | 4
16 | B8 | 4
